Experimental data from the supplement of paper PMC3334620.
The full ranking holds about 33,000 sequences; the median of “E-score (-0.5 to 0.5)” is about -0.035, and the highest 2% start at about 0.35. The list shows a part of the results.

molecular target: T1, Pdr3 (UniProt P33200); assay: PBM E-score (8-mer binding enrichment) (E-score (-0.5 to 0.5)); higher = stronger / more preferred TF binding; most listed sequences are background and not binding sites; settings: protein concentration: 200 nM; construct: GST-full length
T1 sequence: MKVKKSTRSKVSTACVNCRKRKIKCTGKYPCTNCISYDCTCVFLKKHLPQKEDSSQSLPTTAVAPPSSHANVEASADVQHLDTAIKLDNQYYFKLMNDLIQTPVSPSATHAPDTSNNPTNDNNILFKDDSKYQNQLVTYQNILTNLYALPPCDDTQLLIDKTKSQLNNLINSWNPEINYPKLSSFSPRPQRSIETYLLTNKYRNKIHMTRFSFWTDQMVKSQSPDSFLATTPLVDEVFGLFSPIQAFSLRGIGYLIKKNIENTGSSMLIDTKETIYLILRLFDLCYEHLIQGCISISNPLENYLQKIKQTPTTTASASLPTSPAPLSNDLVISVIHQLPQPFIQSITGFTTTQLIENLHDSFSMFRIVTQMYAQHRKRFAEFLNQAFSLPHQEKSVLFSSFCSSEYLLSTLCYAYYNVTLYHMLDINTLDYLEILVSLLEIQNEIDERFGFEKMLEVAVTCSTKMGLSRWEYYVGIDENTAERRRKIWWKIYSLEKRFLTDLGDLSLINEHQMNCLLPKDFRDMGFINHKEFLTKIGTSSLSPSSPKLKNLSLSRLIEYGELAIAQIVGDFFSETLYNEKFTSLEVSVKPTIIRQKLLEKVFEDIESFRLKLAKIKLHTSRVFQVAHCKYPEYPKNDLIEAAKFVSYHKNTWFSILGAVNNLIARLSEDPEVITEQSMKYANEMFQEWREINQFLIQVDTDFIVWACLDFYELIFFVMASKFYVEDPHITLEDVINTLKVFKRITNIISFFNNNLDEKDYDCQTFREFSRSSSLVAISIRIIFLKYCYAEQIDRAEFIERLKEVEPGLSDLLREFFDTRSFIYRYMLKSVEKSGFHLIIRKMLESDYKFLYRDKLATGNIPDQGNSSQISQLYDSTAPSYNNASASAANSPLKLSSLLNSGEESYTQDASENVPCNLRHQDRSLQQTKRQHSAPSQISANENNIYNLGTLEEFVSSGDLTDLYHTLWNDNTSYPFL
In short: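 Masliner-normalised scans of fluorescent anti-GST signal were the basis for scoring. That signal came from GST-tagged yeast transcription factors applied at about 100-200 nM to double-stranded universal all-10-mer Agilent arrays on fresh or once-stripped slides. Each ungapped eight-base word, pooled with its reverse complement, received an E-score from the Universal PBM Analysis Suite.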

Sequence	PBM E-score
AAGTTACG	-0.0907
CGAGAACC	0.0104
CCCCTAGG	-0.177
GAGAGCAC	0.0471
GACAGTAC	0.0759
TATAGTCA	-0.158
GTATGGTA	-0.0789
CCAGACTC	-0.205
AAGCTGAG	-0.044
CTAAGAGA	-0.316
CCCGTCGA	0.215
GATAAAAA	-0.0653
AAAGTGTC	0.0496
ACTATGGA	-0.195
AGACTTTG	-0.167
AGGGGGGG	-0.474
ACTGCTAG	-0.178
AATTTTGA	0.043
GATCAGTA	0.107
CCAAGGAA	-0.0128
CGAATGAA	0.0526
CTTTTGCC	0.108
GGACAGCA	0.166
GAGACCCC	-0.0304
ATTTCCTG	0.0852

Sequence	PBM E-score
ATATACTG	0.169
ATTTTTTC	0.0225
AGGCAAGC	-0.125
CCAAGTAG	-0.276
CCTGGTCG	-0.0152
CGAGATTC	0.173
CATGATAC	0.0347
CGTCCCTA	-0.0477
CTGGCTGC	-0.0301
CCAACTGA	-0.224
AAACATGT	0.00604
CGTCATAA	0.052
AAATCCAC	-0.147
GTTGCACA	-0.0842
CAAAATTA	0.0211
CCCCAAGG	-0.24
CTGCTTCA	-0.222
ACGGAATA	0.445
ACGCCGGA	0.289
CCCGTCGC	0.227
AAACACCC	0.18
ATTCACAG	-0.173
ATGAGAGG	-0.0403
AGCCCGTA	-0.276
ACGAAGAA	0.0764

Sequence	PBM E-score
AGAGCTTG	-0.158
GTACGATA	-0.287
AACGTTTA	-0.148
GCCACTCC	0.126
GATGCCGA	0.221
GGCGTGAC	-0.0861
GCTGGAGA	-0.164
AACATCCT	-0.0912
AGACGGCT	-0.0289
GCCGGGTA	0.175
ACACTTGC	-0.082
GTATAACA	-0.106
GCTGAGAC	-0.0381
CGAGCTAA	0.0883
GCTAATGA	-0.206
AGGCCTAT	-0.246
GATGCAAA	-0.0231
GCGGTCCA	0.0563
GAGGTCAA	-0.12
GAAGAGGC	0.0822
ATCCAACC	-0.00964
AGCGTAGG	-0.0751
CGTCCGGC	0.321
AAACCGGT	0.147
CCGGTTCA	0.104

Sequence	PBM E-score
CTAGCATA	-0.178
GATAACTA	0.0209
AACCCGTA	0.0458
CTGAGCGC	-0.0124
AAGGAGTC	-0.277
CGGAAGGA	0.396
ACTGATAC	0.00473
ATTGACAC	-0.162
AAATCTGC	-0.0812
GCTCGCCC	-0.0125
ATGGTTCA	0.0467
CCTTAGAA	-0.32
GTTCACAA	-0.0345
CTTGATCC	0.105
AAATGGTA	-0.022
AAAATGCC	0.0801
CAGTTGAG	-0.249
GCCTCGGA	0.308
ACACACAT	-0.154
GACTCTCA	-0.111
GGCCGGGA	0.39
CAGATAGC	-0.0206
TACGTCTA	-0.239
AGGTCGTC	0.0231
AATCACAT	0.0509

Sequence	PBM E-score
AAGTACTT	-0.059
GCTGCGAA	0.016
CGACACAA	-0.184
ACACAGCC	0.0243
GGTTCTTA	-0.0791
AGATCACT	0.0795
GCTAGGAC	-0.156
TCCCTCAA	-0.0327
ACGTGTCG	-0.158
GATTCGGA	0.29
ATGGTCGC	0.113
CATTGGCC	-0.139
GGATATAA	0.163
CCTACCCA	-0.214
CATCTAGA	-0.0867
TGTTAACA	-0.218
ACTTTTAG	-0.127
ACATAAGC	-0.134
GTGCACCA	-0.112
ATACTCAG	0.126
CCATGATA	-0.121
AGAGACCT	-0.226
AAAACGGA	0.314
CGTATCAC	-0.0177
CATTGTAC	-0.0479

Sequence	PBM E-score
ACAGCAAC	0.131
GTTTCCTA	-0.191
ATCCTAAG	-0.171
CAGCGGGG	0.128
GATACAAA	0.0878
AAAGACGT	-0.0659
CATGGTAG	-0.18
AGAACGCT	-0.209
CCAATACG	-0.0731
GACACGGA	0.393
AAGAAATT	0.229
GACCTACA	-0.0527
AAGCGTGG	-0.159
ACTTCAGC	-0.119
GGATTACC	0.0727
TGTGACAA	-0.123
GATAGGAA	-0.0623
TTCCAGAA	0.0582
CTTACCCA	-0.0857
CTGCAATA	-0.0588
GAGATACA	0.159
AGGATCAG	-0.133
CGTATGCA	0.0709
CAGCCAGA	-0.0284
GAAAGCTC	-0.148

Sequence	PBM E-score
AAAAGAGT	-0.208
AGAGAGGC	-0.286
CAATATTG	-0.0365
AGATTCAA	0.0373
AATTGTCA	-0.109
CGGGGCCC	0.354
TAGACAGA	-0.0482
ACCGATTG	0.022
AACATGCT	-0.0525
GTAACGAA	-0.169
CCCATACG	-0.159
CCGCGGTA	0.473
CAACGAGA	0.00536
GCTCTTAC	-0.0194
TGCTCAAA	-0.0775
GAGGGTCA	-0.245
GTACATGA	-0.242
CTGGCATA	-0.0359
TCTAGTCA	-0.196
CACCACGC	-0.244
CAACGAGG	-0.0193
CATAAGCC	-0.0797
